Measured values published in the supplement of paper PMC8728848.
This is one part of the list.

Tests used:
Test in all cases: glycan array binding signal (z-score within array); higher = stronger binding
Details in all cases: glycan notation: IUPAC condensed, linker removed
[1] = target: Fuc(a1-2)[Gal(a1-3)]Gal(b1-4)GlcNAc(b1-2)Man(a1-3)[Fuc(a1-2)[Gal(a1-3)]Gal(b1-4)GlcNAc(b1-2)Man(a1-6)]Man(b1-4)GlcNAc(b1-4)[Fuc(a1-6)]GlcNAc
How it was run: (§1)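 Glycan array data came from 3228 arrays in the Consortium for Functional Glycomics database, and only arrays with an available protein sequence were kept. Glycan names were put into IUPAC-condensed notation, and columns mapping to the same glycan were averaged. The binding signal is a within-array Z-score, averaged across arrays of one protein sequence run at different concentrations or buffers and across linkers. A negative Z-score can be read as non-binding.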

[2] = target: Fuc(a1-2)[Gal(a1-3)]Gal(b1-4)GlcNAc(b1-3)GalNAc
How it was run: as §1

[3] = target: Fuc(a1-2)[Gal(a1-3)]Gal(b1-4)GlcNAc(b1-3)[Fuc(a1-2)[Gal(a1-3)]Gal(b1-4)GlcNAc(b1-6)]GalNAc
How it was run: as §1

[4] = target: Fuc(a1-2)[Gal(a1-3)]Gal(b1-4)GlcNAc(b1-6)GalNAc
How it was run: as §1

[5] = target: Fuc(a1-2)[Gal(a1-3)]Gal(b1-4)[Fuc(a1-3)]Glc
How it was run: as §1

[6] = target: Fuc(a1-2)[Gal(a1-3)]Gal(b1-4)[Fuc(a1-3)]GlcNAc
How it was run: as §1

[7] = target: Fuc(a1-2)[Gal(a1-3)]Gal(b1-4)[Fuc(a1-3)]GlcNAc(b1-3)GalNAc
How it was run: as §1

[8] = target: Fuc(a1-2)[Gal(a1-4)]Gal(b1-4)GlcNAc
How it was run: as §1

[9] = target: Fuc(a1-2)[GalNAc(a1-3)]Gal
How it was run: as §1

[10] = target: Fuc(a1-2)[GalNAc(a1-3)]Gal(b1-3)GalNAc(a1-3)[Fuc(a1-2)]Gal(b1-4)GlcNAc
How it was run: as §1

[11] = target: Fuc(a1-2)[GalNAc(a1-3)]Gal(b1-3)GalNAc(b1-3)Gal(a1-4)Gal(b1-4)Glc
How it was run: as §1

[12] = target: Fuc(a1-2)[GalNAc(a1-3)]Gal(b1-3)GlcNAc
How it was run: as §1

[13] = target: Fuc(a1-2)[GalNAc(a1-3)]Gal(b1-3)GlcNAc(b1-2)Man(a1-3)[Fuc(a1-2)[GalNAc(a1-3)]Gal(b1-3)GlcNAc(b1-2)Man(a1-6)]Man(b1-4)GlcNAc(b1-4)GlcNAc
How it was run: as §1

[14] = target: Fuc(a1-2)[GalNAc(a1-3)]Gal(b1-3)GlcNAc(b1-2)Man(a1-3)[Fuc(a1-2)[GalNAc(a1-3)]Gal(b1-3)GlcNAc(b1-2)Man(a1-6)]Man(b1-4)GlcNAc(b1-4)[Fuc(a1-6)]GlcNAc
How it was run: as §1

[15] = target: Fuc(a1-2)[GalNAc(a1-3)]Gal(b1-3)GlcNAc(b1-3)GalNAc
How it was run: as §1

[16] = target: Fuc(a1-2)[GalNAc(a1-3)]Gal(b1-3)GlcNAc(b1-6)GalNAc
How it was run: as §1

[17] = target: Fuc(a1-2)[GalNAc(a1-3)]Gal(b1-4)Glc
How it was run: as §1

[18] = target: Fuc(a1-2)[GalNAc(a1-3)]Gal(b1-4)GlcNAc
How it was run: as §1

[19] = target: Fuc(a1-2)[GalNAc(a1-3)]Gal(b1-4)GlcNAc(b1-2)Man
How it was run: as §1

[20] = target: Fuc(a1-2)[GalNAc(a1-3)]Gal(b1-4)GlcNAc(b1-2)Man(a1-3)[Fuc(a1-2)[GalNAc(a1-3)]Gal(b1-4)GlcNAc(b1-2)Man(a1-6)]Man(b1-4)GlcNAc(b1-4)GlcNAc
How it was run: as §1

[21] = target: Fuc(a1-2)[GalNAc(a1-3)]Gal(b1-4)GlcNAc(b1-2)Man(a1-3)[Fuc(a1-2)[GalNAc(a1-3)]Gal(b1-4)GlcNAc(b1-2)Man(a1-6)]Man(b1-4)GlcNAc(b1-4)[Fuc(a1-6)]GlcNAc
How it was run: as §1

[22] = target: Fuc(a1-2)[GalNAc(a1-3)]Gal(b1-4)GlcNAc(b1-3)Gal(b1-4)GlcNAc
How it was run: as §1

[23] = target: Fuc(a1-2)[GalNAc(a1-3)]Gal(b1-4)GlcNAc(b1-3)Gal(b1-4)GlcNAc(b1-3)Gal(b1-4)GlcNAc
How it was run: as §1

[24] = target: Fuc(a1-2)[GalNAc(a1-3)]Gal(b1-4)GlcNAc(b1-3)GalNAc
How it was run: as §1

[25] = target: Fuc(a1-2)[GalNAc(a1-3)]Gal(b1-4)GlcNAc(b1-3)[Fuc(a1-2)[GalNAc(a1-3)]Gal(b1-4)GlcNAc(b1-6)]GalNAc
How it was run: as §1

[26] = target: Fuc(a1-2)[GalNAc(a1-3)]Gal(b1-4)GlcNAc(b1-6)GalNAc
How it was run: as §1

[27] = target: Fuc(a1-2)[GalNAc(a1-3)]Gal(b1-4)[Fuc(a1-3)]GlcNAc
How it was run: as §1

[28] = target: Fuc(a1-2)[GalNAc(a1-3)]Gal(b1-4)[Fuc(a1-3)]GlcNAc(b1-3)GalNAc
How it was run: as §1

[29] = target: Fuc(a1-2)[GalNAc(a1-4)]Gal(b1-4)GlcNAc
How it was run: as §1

[30] = target: Fuc(a1-2)[GalNAc(b1-3)]Gal
How it was run: as §1

B1: PX9896A-bth-573-26-573 (Bacteroides thetaiotaomicron) (protein)
chain: ETNNLKTKEDMYKYFGTSKSMLTHVYSYMPQGYQLFATSGGIFTEDRYSMRDCASDDGEFGAYADNIQNTNNGNWSPIKTYDDSWTLYRGIRAANSFIAEIAQVDFTRYEHDGQYTNWMKQLKYFPYEARVLRAHYFFELARRYGDIAMPLEVLTEEEANTIGKTPFSEVISFIVSECDDAANNLPDSYVNEPGAEIGRVTKGFAMAVKSKALLYAASKLHNPSMDTELWKKSAKAAIDIINTGLYSLDPQESANNLDSKEVVLMRINGDDSDFEMFNLPLRMTAGTRTSSLIPYSNYPSQNLVDAFETVNGYKVTLENTGWVCEDPAFDPQSPYENRDKRFYRAILANGMSFKDYTIETFKGGADDGIVSQGGSPTGYFLRKYIQEATSFEPGKEAVSKHHWVIYRYAETLLTYAESMVNAFNDVNYTDETYKYSALWAINEVRKNADMPLIPSMGKDEFMERLYNEWRVEFAFEDHRFWDVRRWKIADTTQRELYGVKIEKQADGTFNFYKNLYETRNWRDCMYLYPIPQSELYKNTNLNPQNTGW
- glycan array binding signal (z-score) [1]: 0.129
- glycan array binding signal (z-score) [2]: -0.517
- glycan array binding signal (z-score) [3]: -0.112
- glycan array binding signal (z-score) [4]: -0.304
- glycan array binding signal (z-score) [5]: -1.01
- glycan array binding signal (z-score) [6]: -0.567
- glycan array binding signal (z-score) [7]: -0.545
- glycan array binding signal (z-score) [8]: 0.211
- glycan array binding signal (z-score) [9]: -0.395
- glycan array binding signal (z-score) [10]: 0.607
- glycan array binding signal (z-score) [11]: -0.599
- glycan array binding signal (z-score) [12]: -0.255
- glycan array binding signal (z-score) [13]: -0.229
- glycan array binding signal (z-score) [14]: -0.618
- glycan array binding signal (z-score) [15]: 0.284
- glycan array binding signal (z-score) [16]: -0.61
- glycan array binding signal (z-score) [17]: 0.401
- glycan array binding signal (z-score) [18]: -0.414
- glycan array binding signal (z-score) [19]: -0.758
- glycan array binding signal (z-score) [20]: 0.585
- glycan array binding signal (z-score) [21]: 0.289
- glycan array binding signal (z-score) [22]: 0.12
- glycan array binding signal (z-score) [23]: -0.461
- glycan array binding signal (z-score) [24]: -0.608
- glycan array binding signal (z-score) [25]: -0.591
- glycan array binding signal (z-score) [26]: 0.088
- glycan array binding signal (z-score) [27]: -0.795
- glycan array binding signal (z-score) [28]: 0.168
- glycan array binding signal (z-score) [29]: -0.008
- glycan array binding signal (z-score) [30]: -0.22
